Measurements from PubChem BioAssay AID686979 (National Center for Advancing Translational Sciences (NCATS), 2013).
Out of some 420,000 compounds screened, about 50,000 (12%) were called active. Inconclusive means that the source gave no clear call. Such entries were picked first, then a sample of the others. Calls follow the shape of the dose curve; as a rule, active = well fitted inhibition curve with a large enough effect; inconclusive = small, poorly fitted or top-dose-only effect; inactive = flat fitted curve, though single readings scatter. Potencies of inconclusive entries are left out as doubtful fits. Where a structure was tested more than once in an assay, its records may differ in their call.

Test: qHTS for Inhibitors of human tyrosyl-DNA phosphodiesterase 1 (TDP1): qHTS in cells in presence of CPT; also: nearly all actives have a fitted effect of over 55% in size
Conditions: chicken DT40 Tdp1-/-;hTDP1 cells + 20 nM CPT, ATP luminescence, 48 h; activity change, negative = growth inhibition: at 46.2 µM (top of the series) unless noted
How it was run: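 Chicken DT40 Tdp1-/- cells stably complemented with human TDP1 were seeded at 400 cells/well in medium containing 20 nM camptothecin, exposed to pin-transferred compounds, and grown at 37 °C for at least 48 hr. Viability was read as ATP luminescence.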
% is scaled to controls: 0 for no effect and ±100 for the full control effect; potency is read from the fitted curve at half-maximal effect; tags tell the direction and shape of the fitted curve.

| Structure (SMILES) | Potency | activity change, negative = growth inhibition |
| --- | --- | --- |
| Cc1ccc(S(=O)(=O)N2CCCC(C(=O)NCCc3ccc(Cl)cc3)C2)cc1 (stereo not given) | inconclusive [inhibitor, single point] | – |
| COCC(C)n1c(C)cc(C(=O)COC(=O)c2nn(C)c(=O)c3ccccc23)c1C (stereo not given) | inconclusive [inhibitor, single point] | – |
| COc1ccc(Cc2c(C(C)(C)C)nc3ccc(Br)cn23)c(C)c1 | – | inconclusive: -30.3% [inhibitor] |
| COc1ccccc1NC(=O)c1ccccc1NS(C)(=O)=O | inconclusive [inhibitor, single point] | – |
| COCCn1c(=O)c(CCc2ccccc2)nc2cnc(N(C)C)nc21 | – | inactive: 10% |
| Cn1c(Cn2c(=O)sc3ccccc32)nnc1SCc1ccccc1F | inconclusive [inhibitor, single point] | – |
| Cn1c(C=O)c(-c2ccc3c(c2)OCCO3)c2ccccc21 | inconclusive [inhibitor, single point] | – |
| COc1ccc(F)cc1S(=O)(=O)n1nc(C)cc1C | – | inactive: -17.1% |
| COC(=O)/C=C1/SC(=NC(=O)c2ccc(OC)cc2)NC1=O | inconclusive [inhibitor, single point] | – |
| Cc1ccc2c(CC(=O)Nc3c(C(=O)c4ccc(F)cc4)oc4ccccc34)coc2c1 | – | inactive: -1.28% |
| CC(C)Oc1ccc2c(c1)OC(c1ccccc1)(C(F)(F)F)NC2=O (stereo not given) | inconclusive [inhibitor, single point] | – |
| Cc1ccc(NC(=O)Cn2cnc3ccccc32)cc1C | inconclusive [inhibitor, single point] | – |
| Cc1ccc(NC(=O)c2cc(S(=O)(=O)N3CCOCC3)ccc2F)c(C)c1 | – | inactive: -16.8% |
| CC(Oc1ccc(F)cc1)C(=O)Nc1cc(C(F)(F)F)ccc1-n1cncn1 (stereo not given) | – | inactive: -21% |
| Cn1c(-c2cc3ccc(OC(=O)C(C)(C)C)cc3oc2=O)nc2ccccc21 | inconclusive [inhibitor, partial curve] | – |
| CCOC(=O)C1CCN(C(=O)C2COc3ccccc3O2)CC1 (stereo not given) | – | inconclusive: 5.99% [inhibitor] |
| COc1ccc(N2CCN(C(=O)c3nn(C)c4c3CS(=O)(=O)c3ccccc3-4)CC2)cc1 | active: 23.1 µM | – |
| COc1cc(-c2cc(-c3nnco3)c3ccccc3n2)cc(OC)c1OC | inconclusive [inhibitor, single point] | – |
| COc1ccc(-c2nc3c(c(SCc4cc(C)ccc4C)n2)Cc2c(CO)cnc(C)c2O3)cc1 | – | inactive: -3.72% |
| CC(NC(=O)C1CCN(C(=O)N2CCOc3ccc(Cl)cc32)CC1)c1ccccc1 (stereo not given) | inconclusive [inhibitor, single point] | – |
